Molecular target: N-terminal truncated recombinant human PDE7B enzyme (Homo sapiens (Human), UniProt Q9NP56)
Assay: biochemical

| Structure (SMILES) | IC50 |
| --- | --- |
| CCO[C@@H]1CCN(C(=O)c2nc3cc(Cl)c4c(c3o2)C2(CCCCC2)NC(=O)N4)C1 [Example 187, 5-Chloro-2-[(3R)-3-ethoxypyrrolidine-1-carbonyl]-7,8-dihydro-6H-spiro[[1,3]oxazolo[5,4-f]quinazoline-9,1′-cyclohexane]-7-one] | 0.01 to 0.1 µM |
| O=C1Nc2c(Cl)cc3cc(C(=O)NCCN4CCc5ccccc54)oc3c2C2(CCCCC2)N1 [Example 293, 5′-Chloro-N-[2-(2,3-dihydro-1H-indol-1-yl)ethyl]-7′-oxo-7′,8′-dihydro-6′H-spiro[cyclohexane-1,9′-furo[2,3-f]quinazoline]-2′-carboxamide] | 0.1 to 1 µM |
| COC[C@H]1CCCN1Cc1nc2cc(Cl)c3c(c2o1)C1(CCCCC1)NC(=O)N3 [Example 115, 5-Chloro-2-{[(2R)-2-(methoxymethyl)pyrrolidin-1-yl]methyl}-7,8-dihydro-6H-spiro[[1,3]oxazolo[5,4-f]quinazoline-9,1′-cyclohexane]-7-one] | 0.01 to 0.1 µM |
| CC1CCN(C(=O)c2cc3cc(Cl)c4c(c3o2)C2(CCCCC2)NC(=O)N4)CC1 [Example 435, 5′-Chloro-2′-(4-methylpiperidine-1-carbonyl)-7′,8′-dihydro-6′H-spiro[cyclohexane-1,9′-furo[2,3-f]quinazoline]-7′-one] | 0.1 to 1 µM |
| COC[C@@H]1CCN(Cc2nc3cc(Cl)c4c(c3o2)C2(CCCCC2)NC(=O)N4)C1 [Example 136, 5-Chloro-2-{[(3R)-3-(methoxymethyl)pyrrolidin-1-yl]methyl}-7,8-dihydro-6H-spiro[[1,3]oxazolo[5,4-f]quinazoline-9,1′-cyclohexane]-7-one] | 0.01 to 0.1 µM |
| CCOCCNC(=O)c1cc2cc(Cl)c3c(c2o1)C1(CCCCC1)NC(=O)N3 [Example 268, 5′-Chloro-N-(2-ethoxyethyl)-7′-oxo-7′,8′-dihydro-6′H-spiro[cyclohexane-1,9′-furo[2,3-f]quinazoline]-2′-carboxamide] | 0.01 to 0.1 µM |
| CNC(=O)C1CCN(Cc2cc3cc(Cl)c4c(c3o2)C2(CCCCC2)NC(=O)N4)CC1 [Example 493, 1-{5′-Chloro-7′-oxo-7′,8′-dihydro-6′H-spiro[cyclohexane-1,9′-furo[2,3-f]quinazoline]-2′-ylmethyl}-N-methylpiperidine-4-carboxamide] | 0.1 to 1 µM |
| CC(=O)c1cc2cc(Cl)c3c(c2o1)C1(CCCCC1)NC(=O)N3 [Example 575, 2′-Acetyl-5′-chloro-7′,8′-dihydro-6′H-spiro[cyclohexane-1,9′-furo[2,3-f]quinazoline]-7′-one] | 0.01 to 0.1 µM |

Source: US11685745B2, “Substituted benzoxazole and benzofuran compounds as PDE7 inhibitors” (Dart NeuroScience, LLC, priority 2017, dated 2023)
